2 molecules from article PMC10904452 can be followed below.

Assay in all cases: co-IP; HEK293T cells co-transfected, harvested 48 h after transfection; NETN lysis buffer (20 mM Tris-HCl pH 7.5, 100 mM NaCl, 6 mM EDTA, 0.5% NP-40); 1 mg protein with 50 ul anti-HA, anti-GFP, anti-FLAG or anti-Myc mAb magnetic beads overnight at 4 C; five washes; western blotting; both directions of precipitation
For orientation: In western blotting, separated proteins are transferred to a membrane and probed.

The target of test [1] is T1, HA-tagged PRSS54 (PRSS54-HA) (mouse) (UniProt Q7M756).
T1 sequence: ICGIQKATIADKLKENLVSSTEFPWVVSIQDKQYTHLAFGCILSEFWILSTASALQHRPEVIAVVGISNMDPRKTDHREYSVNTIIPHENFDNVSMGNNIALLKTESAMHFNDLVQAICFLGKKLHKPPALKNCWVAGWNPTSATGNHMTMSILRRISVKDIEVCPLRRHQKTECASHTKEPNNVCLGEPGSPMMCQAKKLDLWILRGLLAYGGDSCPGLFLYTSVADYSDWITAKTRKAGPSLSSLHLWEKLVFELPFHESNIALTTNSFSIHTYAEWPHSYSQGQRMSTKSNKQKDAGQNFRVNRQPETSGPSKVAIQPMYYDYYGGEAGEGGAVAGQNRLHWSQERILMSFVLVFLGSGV

Test [2] has as its target T2, FLAG-tagged ZPBP (ZPBP-FLAG) (mouse) (UniProt Q62522).
T2 sequence: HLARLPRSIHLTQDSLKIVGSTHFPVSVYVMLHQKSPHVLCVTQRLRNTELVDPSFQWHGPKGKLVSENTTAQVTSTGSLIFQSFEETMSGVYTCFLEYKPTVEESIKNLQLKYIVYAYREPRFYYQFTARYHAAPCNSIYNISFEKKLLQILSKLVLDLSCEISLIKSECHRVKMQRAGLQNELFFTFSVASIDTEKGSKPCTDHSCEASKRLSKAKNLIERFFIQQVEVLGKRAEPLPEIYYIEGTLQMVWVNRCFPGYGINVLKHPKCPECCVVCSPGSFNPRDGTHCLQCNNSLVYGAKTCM

In test [3] the target is T3, Myc-tagged ADAM3 (ADAM3-Myc) (mouse) (UniProt F8VQ03).
T3 sequence: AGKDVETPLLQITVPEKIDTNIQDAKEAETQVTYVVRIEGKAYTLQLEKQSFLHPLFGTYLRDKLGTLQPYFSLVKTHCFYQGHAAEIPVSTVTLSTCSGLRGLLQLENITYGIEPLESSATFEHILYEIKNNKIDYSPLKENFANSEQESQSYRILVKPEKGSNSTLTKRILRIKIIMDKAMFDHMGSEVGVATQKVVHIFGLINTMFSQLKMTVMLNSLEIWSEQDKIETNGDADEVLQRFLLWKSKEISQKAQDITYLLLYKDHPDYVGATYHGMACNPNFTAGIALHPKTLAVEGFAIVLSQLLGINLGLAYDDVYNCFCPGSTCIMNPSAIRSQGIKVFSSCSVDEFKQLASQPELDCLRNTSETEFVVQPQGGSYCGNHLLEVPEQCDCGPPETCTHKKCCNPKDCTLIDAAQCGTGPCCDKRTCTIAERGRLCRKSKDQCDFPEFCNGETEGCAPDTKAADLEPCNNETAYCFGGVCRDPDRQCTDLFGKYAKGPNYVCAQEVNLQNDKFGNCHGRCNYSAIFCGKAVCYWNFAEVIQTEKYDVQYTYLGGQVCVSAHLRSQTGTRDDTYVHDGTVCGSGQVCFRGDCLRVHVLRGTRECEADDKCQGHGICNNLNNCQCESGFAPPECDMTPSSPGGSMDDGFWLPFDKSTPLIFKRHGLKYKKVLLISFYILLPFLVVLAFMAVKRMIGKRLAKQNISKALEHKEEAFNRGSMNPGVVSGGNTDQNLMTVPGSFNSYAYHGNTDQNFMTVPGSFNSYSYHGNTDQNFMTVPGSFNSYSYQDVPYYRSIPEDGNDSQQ

Test [4] concerns the target T4, CLGN (from pCAG-Clgn-FLAG) (mouse) (UniProt P52194).
T4 sequence: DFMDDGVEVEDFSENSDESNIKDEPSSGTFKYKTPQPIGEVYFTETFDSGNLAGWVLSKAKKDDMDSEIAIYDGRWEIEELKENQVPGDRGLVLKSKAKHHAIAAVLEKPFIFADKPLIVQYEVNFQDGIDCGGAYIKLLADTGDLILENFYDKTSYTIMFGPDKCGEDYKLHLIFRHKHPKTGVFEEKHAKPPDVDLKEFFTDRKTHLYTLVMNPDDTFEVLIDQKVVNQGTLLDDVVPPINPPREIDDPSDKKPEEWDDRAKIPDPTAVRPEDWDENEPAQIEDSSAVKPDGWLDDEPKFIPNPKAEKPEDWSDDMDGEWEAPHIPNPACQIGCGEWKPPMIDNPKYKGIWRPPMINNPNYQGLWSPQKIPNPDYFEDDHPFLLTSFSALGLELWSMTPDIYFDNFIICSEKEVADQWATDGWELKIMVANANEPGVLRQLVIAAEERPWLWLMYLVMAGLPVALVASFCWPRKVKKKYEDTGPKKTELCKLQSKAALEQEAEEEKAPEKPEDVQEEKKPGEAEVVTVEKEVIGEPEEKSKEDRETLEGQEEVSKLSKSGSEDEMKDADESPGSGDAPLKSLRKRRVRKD

In test [5] the target is T5, PDILT (from pCAG-Pdilt-FLAG) (mouse) (UniProt Q9DAN1).
T5 sequence: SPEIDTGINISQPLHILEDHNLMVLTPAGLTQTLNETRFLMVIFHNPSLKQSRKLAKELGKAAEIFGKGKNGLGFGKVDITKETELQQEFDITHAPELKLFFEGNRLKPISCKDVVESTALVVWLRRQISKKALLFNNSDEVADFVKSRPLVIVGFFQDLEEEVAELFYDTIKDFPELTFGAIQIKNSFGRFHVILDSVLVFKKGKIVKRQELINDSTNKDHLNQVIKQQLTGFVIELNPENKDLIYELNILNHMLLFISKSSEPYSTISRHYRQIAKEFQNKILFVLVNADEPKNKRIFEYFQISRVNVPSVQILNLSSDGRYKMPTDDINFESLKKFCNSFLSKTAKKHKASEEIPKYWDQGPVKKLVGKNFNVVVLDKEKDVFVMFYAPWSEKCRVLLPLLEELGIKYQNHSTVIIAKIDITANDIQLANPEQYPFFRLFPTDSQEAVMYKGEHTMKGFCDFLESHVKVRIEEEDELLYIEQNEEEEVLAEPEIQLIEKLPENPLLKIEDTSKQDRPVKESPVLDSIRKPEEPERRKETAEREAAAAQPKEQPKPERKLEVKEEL

The target in test [6] is T6, EGFP-tagged PRSS55 (PRSS55-EGFP) (mouse) (UniProt Q14BX2).
T6 sequence: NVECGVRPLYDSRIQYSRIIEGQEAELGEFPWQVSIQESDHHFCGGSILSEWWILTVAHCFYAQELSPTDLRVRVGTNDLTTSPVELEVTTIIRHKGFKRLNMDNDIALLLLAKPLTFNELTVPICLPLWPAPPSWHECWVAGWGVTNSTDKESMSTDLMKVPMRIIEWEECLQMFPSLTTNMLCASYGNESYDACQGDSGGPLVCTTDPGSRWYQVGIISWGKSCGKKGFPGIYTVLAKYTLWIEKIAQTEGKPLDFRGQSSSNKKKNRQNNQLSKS

No constants are given. Whether binding was seen depends on the method and setting. Binding seen in cells or lysates may run through a third protein. Some binding calls cover weakened binding; strength is not graded here. Where a sequence is shown, tags or fusion partners need not be part of it.

B1: EGFP-tagged SPEM2 (SPEM2-EGFP fusion protein) (protein, UniProt Q8C5U4 1-503)
chain: MENQLWQNTLRCCEQYQESPQDAENILFLLLGLIILVNISINVATAMWQGLQNAIDKMIFWMNQKTEVVQVTECPPKEPQPANVQDVHIHCILDPVQVKMAQPTQCSSSSSHYFCKRSNDRRSRRRYGYQQGNLQIHQSSQQQGCLSHQQRLRNRPLSRGYPPFRKQPQGHKMSQMRPMPFFDMEDRDSLPEGHSCPHAKQPRRGWGSLCKPVRLASNVGLWGRQGGILASLPLPSLYLSPELRRLPKRVEAKSELRLQGFGPHYSQSRIWGTVEAEQWASSPPPPRRLLPNPSWVTVGYSSFPSGGHIPYDARDQWRRGTEGCEPPPAFVPRNPREVQGYRDHNSQAHRQNFSSHTHSQPNHSPPQSMGHVGYSSRESHEVRRRAPDWIEVFPSRHPLTTSTSLTALGEASYQRAPPASSGLMIPHSSQRLAEVQISDPTPPPTTFVPLSRNPGGNATYQVYDSLELKRQVQENRGRASSLPPPSTSASRPSLHRSRTGKLN
As to B1, the binding result in test [1] was “binds”; in test [2], “binds”; in test [3], “binds”; in test [4], “no binding”; in test [5], “no binding”.

B2: FLAG-tagged SPEM2 (SPEM2-FLAG) (protein, UniProt Q8C5U4 1-503)
chain: B1 chain
B2: the binding entry in test [6] is on record as “binds”.
